Experimental data published in the supplement of paper PMC11417369.
Some of the results follow.

Each sequence was assayed on PfAP2-HC AP2 domain (GST-tagged) (assay: gcPBM binding intensity (ln(normalized median fluorescence intensity)); higher = stronger DNA binding).
Procedure, shortened: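 GST-tagged P. falciparum DNA-binding domains produced in E. coli were incubated for 1 h on an Agilent 4 × 180k array of primer-extended double-stranded 36-bp intergenic genomic probes with negative controls. Binding intensity is the highest Masliner-normalised natural-log median intensity across replicate spots of either probe orientation, with bound protein detected by Alexa488 anti-GST antibody at 488 nm.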

| Sequence | gcPBM binding intensity (ln) |
| --- | --- |
| AATGTGAAAAAAAAAAGTACAGACCTAATCAAAAAA [XGTACX_site2486] | 9.68 |
| AAAAAAAATACATACACACACACACCCACATATATA [CACACA_site3561] | 10.6 |
| ATAGAAGGCAACTTGGTGCACAAAAAAAAAAATAAT | 10 |
| AATATAAAAAAAGAGGAGGGATGGTATACTTGTGGT [CACACA_negctrl_site986] | 9.89 |
| ATATAATAATATTAAAGTACATGCATATATATTTAT [XGTACX_site7422] | 9.66 |
| ACTATTTAAATGCAAAGTACTTTGATAATAAACAAT [XGTACX_site2608] | 9.86 |
| TAATATAACAAAAAAATAAAATAAAATAAAAAATAA [CACACA_negctrl_site109] | 9.69 |
| ATTTTTTAAAAAAACATACACACAAAAAAAAAAAAA [CACACA_site3936] | 9.61 |
| CATAATATCTCTTTGTGTACATATAGTTATTATTAT [XGTACX_site7688] | 9.86 |
| CTGGAGTTAAAAATGTGTACCTAAAAAATTTTGTTC [XGTACX_site5554] | 9.56 |
| ATTATTATATATAAAACACACAATTTTGTTTTCACA [CACACA_site3965] | 9.68 |
| CTTGTATATAAACACACACACACTTTCTTTTTTTAA [CACACA_site8602] | 10.7 |
| AAAAAAAAAAAAAAAAAAAAAAATATATATATATTT [GTGCAC_negctrl_site502] | 9.41 |
| ATTAATCAATATAGGCGTACAAAAAAAATAAATTAT [XGTACX_site1513] | 9.74 |
| CCCCTTAATTTATTTTGTACATATAATTTTTTTTTT [XGTACX_site3270] | 9.9 |
| GTATTTTTAAATGACACACACATATATAAATATGTA [CACACA_site6880] | 9.86 |
| ACAAAAATAAGCAAATGTACATATGTATAATATATT [XGTACX_site2492] | 9.93 |
| TATAAACATAAATATACACACAAACATATAGGTATT [CACACA_site6690] | 10.1 |
| ATATTATAATTGAAGGTGCAAAATGTAATATAGATA [GTGCAC_site9661] | 9.81 |
| ATTATTATTTAAAAAAGTACATTGAAGTTCATAATA [XGTACX_site3575] | 9.45 |
| ATTCATTTTTTGGGGGGTACACCCTTTTAAACATTT [XGTACX_site4797] | 9.76 |
| GTATAAAAAAATATATGTACTTATTTACATATATAT [XGTACX_site4744] | 9.78 |
| TGAAATGATATATAAACACACATATATATATATATA [CACACA_site3511] | 9.6 |
| ATTTTTAATGTGATCACACATAAATATTATATATAT [CACACA_site5641] | 9.64 |
| ATTATATTCCAAGTTTGTACATATATATAAAAGTAT [XGTACX_site1631] | 9.66 |
